Data reported in PubChem BioAssay AID1477 (National Center for Advancing Translational Sciences (NCATS), 2009).
Screen size: about 230,000 compounds; fewer than 10 were called active. The inconclusive results got no clear call from the source; some entries with a clear call stand among them for comparison. Calls come from the whole dose curve; as a rule, active = well fitted curve in the direction sought with a large enough effect; inconclusive = small, poorly fitted or top-dose-only effect, or effect the other way, or another doubt; inactive = no such curve, though single readings can be large or run the other way. No potency is given beside an inconclusive call; the fits are too rough.

Target: Runt-related transcription factor 1 (Homo sapiens) + Core-binding factor subunit beta (Homo sapiens) (UniProt Q01196+Q13951)
Chain of UniProt Q01196 (Q01196 whole entry, looked up): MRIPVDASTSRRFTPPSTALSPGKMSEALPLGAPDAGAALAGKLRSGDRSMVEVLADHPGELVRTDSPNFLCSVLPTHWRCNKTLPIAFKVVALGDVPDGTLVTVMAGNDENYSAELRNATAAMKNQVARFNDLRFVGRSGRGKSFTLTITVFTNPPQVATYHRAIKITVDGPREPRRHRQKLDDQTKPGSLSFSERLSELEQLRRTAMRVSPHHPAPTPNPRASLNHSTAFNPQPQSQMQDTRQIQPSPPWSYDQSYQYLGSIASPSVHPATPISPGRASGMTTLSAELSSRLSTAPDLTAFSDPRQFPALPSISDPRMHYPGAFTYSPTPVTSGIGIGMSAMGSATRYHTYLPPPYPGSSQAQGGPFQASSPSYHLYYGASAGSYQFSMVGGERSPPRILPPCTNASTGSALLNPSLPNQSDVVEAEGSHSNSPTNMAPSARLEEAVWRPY
Chain of UniProt Q01196 (Q13951 whole entry, looked up): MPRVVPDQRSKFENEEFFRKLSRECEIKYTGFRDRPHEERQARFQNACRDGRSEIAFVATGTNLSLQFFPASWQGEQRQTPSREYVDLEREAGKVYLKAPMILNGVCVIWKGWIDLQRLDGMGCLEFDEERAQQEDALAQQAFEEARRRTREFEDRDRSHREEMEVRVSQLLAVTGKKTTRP
Experiment: qHTS Assay for Compounds Blocking the Interaction Between CBF-beta and RUNX1 for the Treatment of Acute Myeloid Leukemia
Conditions: AlphaScreen CBFb-His/RUNX1-biotin binding, biochemical; series mostly up to 59.8 µM
How it was run: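 Bead-based AlphaScreen assay; binding partners His-tagged CBF-beta and biotinylated RUNX1 at 30 nM each. Compound exposure 15 min after a 20-min protein preincubation; bead step 90 min; all steps at room temperature.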

Row | SMILES | Potency
1 | Cc1nn(-c2ccccc2)c(=S)n1-c1ccccc1 | inactive
2 | CCCc1nc2c(=O)n(C)c(=O)nc-2n(C)n1 | inconclusive [inhibitor, single point]
3 | Cc1cc(C)c2[nH]c(=O)c(C(c3nnnn3C(C)(C)C)N3CCN(C(=O)c4ccco4)CC3)cc2c1 (centres undefined) | inactive
4 | CCCC[C@@H]1C[C@H]1C(NC(=O)c1ccc(C(F)(F)F)cc1)c1ccc(C(=O)OC)cc1 (some centres undefined) | inconclusive [activator, partial curve]
5 | CCCNCC1COc2ccccc2O1 (centres undefined) | inactive
6 | COc1ccc(C(NC(=O)C(C)C)c2ccc3cccnc3c2O)cc1 (centres undefined) | inconclusive [inhibitor, partial curve]
7 | O=C(/C=C/c1ccc(O)c(O)c1)c1ccc(S(=O)(=O)N2CCCCCC2)cc1 | inconclusive [inhibitor, single point]
8 | O=C(NCc1ccccc1C(F)(F)F)C1CC(c2cc(C(F)(F)F)cc(C(F)(F)F)c2)=NO1 (centres undefined) | inconclusive [activator, partial curve]
9 | Cc1cc(C)n(-c2nc3ccccc3nc2N2CCC(C)CC2)n1 | inconclusive [activator, single point]
10 | Cc1[nH]n(-c2ccccc2)c(=O)c1C(c1ccccc1C(=O)O)c1c(C)[nH]n(-c2ccccc2)c1=O | inactive
11 | O=C(O)c1cc(-c2ccco2)nn1-c1ccc(Cl)cc1 | inconclusive [inhibitor, single point]
12 | Cc1nc(NCCO)c2nc(-c3ccccc3)n(CCN(C)C)c2n1 | inactive
13 | CS(=O)(=O)c1ccc2nc(NC(=O)CCC(=O)c3cccs3)sc2c1 | inactive
14 | O=C(O)c1ccc(Sc2ccccn2)c([N+](=O)[O-])c1 | inconclusive [activator, single point]
15 | COc1ccc(Cc2noc(-c3ccc(C)cc3)n2)cc1 | inconclusive [activator, single point]
16 | Cc1ccc(S(=O)(=O)N2CCCCC2)cc1NC(=O)COC(=O)c1ccc2c(c1)OCO2 | inconclusive [activator, single point]
17 | CCCc1cc(Nc2c(C)n(C)n(-c3ccccc3)c2=O)n2c(nc3ccccc32)c1C#N | inconclusive [activator, single point]
18 | Fc1cc2[nH]c(=S)[nH]c2cc1Cl | inactive
19 | CC(Sc1nnc(NC2CCCCC2)s1)C(=O)Nc1ccc2c(c1)C(=O)c1ccccc1C2=O (centres undefined) | inactive
20 | CC(C)(C)c1ccc(C2C3=C(CCCC3=O)NC3=C2C(=O)c2ccccc23)cc1 (centres undefined) | inconclusive [inhibitor, single point]
21 | COc1ccc(CCC(=O)OCC(=O)c2cccc(OC)c2)cc1 | inconclusive [activator, single point]
22 | CN(C)CCNc1nc2c(c(=O)[nH]c(=O)n2C)n1CC(O)COc1ccc(Cl)cc1Cl (centres undefined) | inactive
23 | COc1ccc(C(=O)c2cc([N+](=O)[O-])ccc2N2CCOCC2)cc1 | inactive

Row | SMILES | Potency
24 | C/C(CC(C)C)=N/Nc1ccc([N+](=O)[O-])cc1[N+](=O)[O-] | inconclusive [inhibitor, partial curve]
25 | O=C1C(Cl)=C(N2CCCCC2)C(=O)N1c1ccccc1Cl | inconclusive [activator, partial curve]
26 | CCOC(=O)c1ccc(COC(=O)CCc2nc(-c3ccccc3)c(-c3ccccc3)o2)cc1 | inconclusive [activator, partial curve]
27 | O=C(CC1S/C(=N/N=C/c2ccco2)NC1=O)Nc1cccc(Cl)c1Cl (centres undefined) | inactive
28 | CN1CCC(N(C)C(=S)NC(=O)c2cc(-c3cccc(Br)c3)nc3ccccc23)CC1 | inactive
29 | c1ccc(CN2CCN(c3nc(-c4ccccn4)nc4ccccc34)CC2)cc1 | inconclusive [inhibitor, partial curve]
30 | O=C(O)Cc1sc(N/N=C\c2ccncc2)nc1-c1ccccc1 | inconclusive [inhibitor, single point]
31 | CCOC(=O)C(=Cc1ccc(-n2ccnc2)cc1)C(=O)OCC | inactive
32 | CCN(CC)S(=O)(=O)c1ccc(OC)c(NC(=O)Cc2cccs2)c1 | inconclusive [inhibitor, single point]
33 | Cc1ccc(-c2cc(Cc3ccc(N(C)C)cc3)c(=O)[nH]n2)cc1 | inactive
34 | c1ccc2c(c1)cnc1ccccc12 | inconclusive [activator, full curve]
35 | CC1(OC(=O)CCc2ccccc2)C(=O)C=C2C=C(c3ccc(C#N)cc3)N(CCc3c[nH]c4ccccc34)C=C2C1=O (centres undefined) | inconclusive [inhibitor, single point]
36 | CC(C(=O)Nc1cccnc1)n1cc([N+](=O)[O-])cn1 (centres undefined) | inactive
37 | Fc1ccc(N2CCN(c3nc(CN4CCOCC4)nc4scc(-c5ccccc5)c34)CC2)cc1 | inconclusive [inhibitor, partial curve]
38 | CC(C)C1N=C2c3ccccc3N=C(SCC#N)N2C1=O (centres undefined) | inactive
39 | CC(C)(C)C(=O)Nc1cccc(-c2cc(-c3c(Cl)cccc3Cl)no2)c1 | inactive
40 | CCOCC(=O)N1CCCC(C(=O)OCC)C1 (centres undefined) | inactive
41 | CCOc1cc(C)c(S(=O)(=O)N2CCCC2)cc1C | inconclusive [activator, single point]
42 | Cc1ccccc1OCC(=O)O/N=C(\N)Cc1ccc(Cl)cc1 | inconclusive [activator, partial curve]
43 | C/C=C1\C[C@H](C)[C@@](O)(CO)C(=O)OCC2=CCN3CC[C@@H](OC1=O)[C@@H]23 | inconclusive [inhibitor, single point]
44 | Cn1cc(/C=C2\SC(=O)N(c3ccc(O)cc3)C2=O)c2ccccc21 | inactive
45 | O=C(CN1CCOCC1)Nc1ncc(Cc2cccc(Cl)c2)s1 | inactive
46 | Cc1cc(C)c(OCCOCCN(C)C)c(Br)c1 | inconclusive [inhibitor, single point]

Row | SMILES | Potency
47 | Cc1ccc(-c2csc(NC(=O)c3cccc(N4C(=O)CCC4=O)c3)n2)o1 | inactive
48 | COc1ccc(C2=NN(c3ccccc3)C(c3cn(CCC(=O)O)nc3-c3ccccc3)C2)cc1 (centres undefined) | inconclusive [activator, partial curve, poor fit]
49 | COc1ccc(-n2c(O)c(/C=N/Nc3nc(C)cc(C)n3)c3ccccc3c2=O)cc1OC | inactive
50 | Cc1ccc(-c2cc3nc(-c4ccccc4)cc(N4CCC5(CC4)OCCO5)n3n2)cc1 | inconclusive [activator, partial curve]
51 | O=[N+]([O-])c1ccc(/C=N/N=C/c2ccc([N+](=O)[O-])o2)o1 | inactive
52 | Oc1cccc(C(Nc2nccs2)c2ccc3cccnc3c2O)c1 (centres undefined) | inconclusive [inhibitor, full curve, poor fit]
53 | COc1ccc(Cc2nnc(N/N=C/c3ccccc3O)[nH]c2=O)cc1OC | inconclusive [inhibitor, full curve, poor fit]
54 | CC1(C)CC(=O)C(C=Nc2ccc(O)c(N=CC3=C(O)CC(C)(C)CC3=O)c2)=C(O)C1 | inactive
55 | C/C(=N\Nc1cccc2ccccc12)c1c(O)n(Cc2ccccc2)c(=O)[nH]c1=O | inconclusive [inhibitor, single point]
56 | COc1cc(OC)c2c(-c3ccccc3)cc(=O)oc2c1C(CC(=O)N1CCCC1)c1ccc2c(c1)OCO2 (centres undefined) | inconclusive [inhibitor, single point]
57 | CCCn1c(NC(=S)Nc2ccccc2)nc2ccccc21 | inconclusive [inhibitor, single point]
58 | O=[N+]([O-])CC(=Nc1ccc(Cl)cc1)N/N=C\c1oc(O)c2ccccc12 | inconclusive [inhibitor, single point]
59 | C#CCOCCOCCOCCNc1nc(N2CCN(C(=O)[C@H](CCC(=O)O)n3cc(C(N)CO)nn3)CC2)nc(N2CCN(C(=O)[C@H](CCC(=O)O)n3cc(C(N)CC(C)C)nn3)CC2)n1 (some centres undefined) | inconclusive [inhibitor, single point]
60 | CCc1ccc(C(=O)N/N=C/c2cccc3ccccc23)nc1 | inactive
61 | COC(=O)C1=C(Nc2ccc(C)cc2)C=C(C)C(C(=O)OC)C1c1cccc(OC)c1 (centres undefined) | inconclusive [activator, single point]
62 | CC/C(=N\NC(=S)Nc1cc(C)ccc1C)c1ccc(OC(F)F)cc1 | inconclusive [inhibitor, partial curve, poor fit]
63 | COc1cc2c(cc1OC)CN(c1nc(CN3CCOCC3)nc3sc4c(c13)CCCC4)CC2 | inconclusive [inhibitor, partial curve]
64 | COc1ccc(/C=C2/N=C(SCC(=O)Nc3cc(C)on3)N(c3ccccc3)C2=O)cc1 | inactive
65 | Cc1ccc(Nc2cc(C)nn2-c2nc(C)cc(=O)[nH]2)cc1 | inconclusive [inhibitor, partial curve]
66 | CCCn1c(=S)[nH]c2cc(OC)c(OC)cc2c1=O | inactive
67 | Cc1ccccc1N1CCN(C(=S)c2ccc([N+](=O)[O-])cc2)CC1 | inconclusive [inhibitor, partial curve]
68 | O=C1NC(=O)N(c2ccc(Cl)cc2)C(=O)/C1=C/c1coc2ccc(O)cc2c1=O | inconclusive [inhibitor, single point]
69 | CC(=O)c1ccc(NC2=C(N3CCOCC3)C(=O)c3ccccc3C2=O)cc1 | inactive
